# ± gives the standard deviation. Only a part is listed here, and it is no random draw.
# Test system: MIWI (PIWIL1) piRISC loaded with L1MC piRNA (30 nt)
# Test: pre-steady-state target cleavage rate (min^-1); MIWI and MILI are mouse PIWI proteins and EfPiwi is from a freshwater sponge; tags in brackets are library labels; higher = faster piRNA-guided slicing of the target
# Details: guide: L1MC piRNA 5'p-UAACUAAAUACUAUGCAAGCUGUAGGUCCU; auxiliary factor: none (no GTSF1)
# In short: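 In this Cleave-'n-Seq assay, uncleaved targets were sequenced and normalised to depth and to weakly complementary targets. They came from a transcribed, DNA-blocked target RNA library […] mixed with 1 nM active affinity-purified piRISC carrying one synthetic guide, with or without 500 nM GTSF1 partner protein, in HEPES–potassium acetate buffer at 33 °C for 0–8 or 0–960 min. After three trials were pooled and k3 was capped at 0.0001 min^-1, the pre-steady-state cleavage rate was obtained from a burst-and-steady-state fit.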
# 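Note: 1 nM active piRISC with 0.1 nM target library at 33 °C single turnover.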
row,Sequence,pre-steady-state target cleavage rate
1,UGGACCUACAGCUAGCAUAGUAUUUAGUUA,0.0334 ± 0.0077
2,UGGACCUACAGCUUGCAAAGUAUUUAGUUA,0.0474 ± 0.0097
3,UCCUGGAUGUCGAACCAUACUAUAUAGUUA,< 0.0001
4,UCCUGGAUGUCGAACGAUAGUAUAAAGUUA,< 0.0001
